Our source for the self-cleavage values is the RNAGym collection of RNA variant scans (doi:10.7554/elife.90254).

First the molecules themselves.
B1: LINE1-full (parent)
chain: UACGUAGGUGGUUUUCCCCUGAUAGUGCUAAGGGGGCCUGGAAGUUUGGACUGGGCAGAGCUCAACACAGCGUGGCAAAGUGGCUGUGGCUAGACUGCCUCUCUGGAUUCCUCGUCACUCAGCAGGGCAUCUCUGAGAGAAAUGCC

Read counts are not given, so values of variants with three or more changes are uncertain.

This series covers variants of B1. Description: self-cleavage, relative activity (ratio to wild type); higher = more cleavage; in vitro, sequencing; the parent is a self-cleaving ribozyme.
On to A129U U130C U134C, for which the self-cleavage is 1.03.
To G106A A141G A142G belongs 1.54; to U119C U130C G144A, 1.48; to U112C U132C A141G, 1.73.
As to U109C U119C U143C, the self-cleavage is 1.67.
For the variant U108C A129G C131U, the self-cleavage amounted to 1.53.
The figure for U134C A136U A140G is 1.28.
As to A121U A136G U143G, the self-cleavage stood at 0.88.
The figure for U109C A136G U143C is 0.97; for A117G G125A A129G it is 0.54; for U100C A121G A140G it is 2.47.
As for U109A A124G A141G, the self-cleavage was found to be 1.43.
As to G127A U132A U134C, the self-cleavage is 0.83.
Take A124G U134C A136G: the self-cleavage stood at 1.49.
To A124C U130C A142G belongs 1.2; to U102C C118U A138G, 1.36; to G106A U130C A136U, 1.44.
To A107G A138G A140G belongs 2.07; to U112A A129U A141G, 1.68.
The figure for A107G U119C A142G is 0.43; for U100C U115C A140G it is 0.77.
With C113U C131A U132A, the self-cleavage was determined as 0.84.
The figure for U112C A138G U143C is 2.11; for A124G U132A A138G it is 0.12; for U102C U108C A129U it is 0.
The figure for U134C A142U U143C is 1.57.
The figure for U115A U132C A140G is 0.57; for U108C A141G U143A G144A it is 1.8; for U100C A121U A136G it is 1.82.
In the case of U115A A129C U132C, the self-cleavage was 1.47.
In the case of A117G A129U U130C A142G, the self-cleavage is 2.16.
As for C113A A138C A142G, the self-cleavage was 0.92.
As to U108C A121G A141G, the self-cleavage was 2.04.
For U115C A129G G135A, the self-cleavage stood at 0.
To G114U A117G U130C belongs 2.02.
In the case of A107G U130A A142G, the self-cleavage is 1.27.
Regarding U119C U130C A136G, the self-cleavage came out at 1.72.
As for U100C A140U A142G, the self-cleavage was found to be 2.46.
The figure for U132C A138G A140U is 1.37; for U112A U115A U134A it is 1.52; for A129U A141G A142G it is 2.02.
To A121U U132A A142G belongs 1.13; to U100C U143C C145U, 1.47.
Consider U104A U119A C131U, for which the self-cleavage worked out at 1.54.
The figure for A138G A140G C145U is 1.07; for G105A C111U G127U it is 1.23; for A117G U134G A138U it is 1.78.
The figure for U132C A140G C146U is 1.69; for U134C A136U A141G it is 1.77; for A107G A129U U134C it is 0.5.
The figure for U108C A121G U143C is 2.36; for U112A U119A A138G it is 1.26.
Take C128U U132C A142G: the self-cleavage came to 1.33.
On to U102A U132C A136U, for which the self-cleavage is 1.66.
To U100C A141G A142U belongs 1.5; to G127A U132C U143G, 0.38; to A124G A140U U143A, 1.15.
U108C A138U U143A: the self-cleavage worked out at 1.8.
The figure for G125A U134C C146A is 0.94.
The figure for U112A A117C U130C is 1.78; for A124U A129U A136G it is 1.4.
To U100C U130A U132C belongs 1.28; to U112A A117G A141U, 1.46; to A121U U134G A136G, 0.8.
For the variant G106U U109C A121U, the self-cleavage turned out to be 1.07.
To U102C U115C C131U belongs 2.3.
Consider U100C G106A U112A, for which the self-cleavage came out at 1.93.
The figure for U104C A124G A142G is 0.88; for A107G U109A A141G it is 1.75; for U100C C116U A136G it is 1.71.
To U100C A124U A138G belongs 1.8.
The figure for U104A U115A A129U A142G is 0.39.
With U109A U115C U130A, the self-cleavage was determined as 2.06.
The figure for A107U U115C A138G is 2.1; for A121G U132C A136U it is 1.15.
The figure for U102C G114U G144A is 1.47.
As to U115A U130A A136G A142G, the self-cleavage worked out at 0.78.
Take U100C U134G U143C: the self-cleavage turned out to be 1.35.
To A121G A124G U143C belongs 0.53; to C101U G126A A140G, 2.45.
The figure for U108C C123U U143C is 2.18; for A124G U132A A142G it is 0.9.
To U115A U130C U132A A136U belongs 1.96.
Take U108C U115A U143A: the self-cleavage was 2.38.
For the variant U112C C131U A140G, the self-cleavage came out at 1.89.
On to U115C C131U A136G, for which the self-cleavage was determined as 1.99.
The figure for U102C U115C A124G is 0; for U115A A136G A142G it is 1.27.
In the case of U112A A140G U143C, the self-cleavage turned out to be 1.44.
The figure for G114A A129U U134C is 0.83.
To C113A A124G A129U belongs 0.55; to U115C G127U A129G, 0.89.
As for A107G G126A A141G, the self-cleavage is 1.4.
On to A129G U132C A140G, for which the self-cleavage came to 1.84.
The figure for A124U A136C A142G is 1.64.
The figure for C110U A140G A141G is 1.85; for U119A C123G A141G A142G it is 1.36.
For C123U A124G A138G, the self-cleavage was 0.28.
The figure for A121U U132C A142G is 1.85; for U104C U109C A117U it is 1.8; for C101A G114A A117G it is 1.34.
To U100C U104A A138U belongs 2.06; to U100C C131A U134A, 1.4; to U102C G106U A129G, 1.92.
The figure for U100C U130C U143A is 1.09; for U115A U134C G135A it is 2.12.
Take U100C U119C A140G: the self-cleavage was found to be 1.82.
To A124U C133U U134C belongs 1.79; to U104A U109G U143A, 0.27.
The figure for U134C A138G A140G is 1.45; for U112C U134A A141U it is 1; for U104C C111U A141G it is 2.74.
Take U115A U134A G139A: the self-cleavage was 1.36.
The figure for A107G A136G C146G is 1.31; for U104A U115C A136G it is 0; for U115A U130C U134G it is 0.3.
For U102C G127A A140G, the self-cleavage amounted to 1.14.
The figure for G106A C110A U112A is 1.01; for A107G C113U A121U U132C it is 0.83.
With U100C A138G U143C, the self-cleavage was determined as 2.3.
As to U104C G106U A124G, the self-cleavage amounted to 1.37.
The figure for U112C U115C A142G is 0.49; for U102C U119C A142G U143C it is 2.16.
For the variant A117U C118U A140G, the self-cleavage came to 1.11.
The figure for U100C A142G U143C is 0; for U104A U132C U143C it is 1.84; for U102A U108A A124G it is 1.37.
As for U115C U132A A136G, the self-cleavage was 1.61.
Take U108C A129U A141G: the self-cleavage was found to be 1.25.
U108C A129U A141U: the self-cleavage was 1.99.
The figure for U112C U134A U143C is 0.34.
To U104C C133G A136G belongs 1.87.
Turning to U100C U112C U115C, the self-cleavage stood at 2.16.
The figure for U100C U112C U115A is 1.93; for A117G U132C A138U A140C it is 0.84.
The figure for A124G A141G A142G is 0.66; for U100C A124U U134C it is 2.24.
For the variant U119A A129G A140U, the self-cleavage was 2.09.
To U100C C110U U119C belongs 1.56.
The figure for G106A A117G A141G is 1.22; for A107G U115C U119C it is 0.92; for C120U A124G A138G U143C it is 1.41.
On to A124G G125A G137A, for which the self-cleavage was determined as 1.33.
The figure for A117U U134C A140U is 1.33; for U108A U109C G122U U132C it is 1.76.
The figure for U108C A136G U143C is 2.51; for U108C U109A C145G it is 1.38.
For A107U U134C A140G, the self-cleavage came out at 1.64.
As to U102C U115C U134A, the self-cleavage was determined as 0.
The figure for A107U U108C A141G is 1.38.
Turning to U115A U119A A140G, the self-cleavage worked out at 1.56.
To A124U A136G U143C belongs 1.77; to U104C G106A A117G, 1.8.
To U115C G122U A141G belongs 1.55; to G105U A129G A142G, 1.34.
The figure for U102C U115A C118U A121U A140U is 1.02; for U100C U132A A138G it is 2.95; for A124G U132C A136G it is 1.26.
On to C101A A129U U134C, for which the self-cleavage stood at 1.12.
U112C C113A C118U: the self-cleavage came out at 0.33.
The figure for U104C G106C U112C C113U U115C is 1.53.
With C101U A136G U143C, the self-cleavage was 1.1.
To A107U U108A U134A belongs 1.23; to U102A U109A A124C A129G, 1.84; to U119C G125U U132C A138G, 1.47.
The figure for A107G A142U G144A is 1.9; for U100C U104A A107G it is 2.73; for U104C A107G U134A it is 0.
In the case of A107G U119G A124U, the self-cleavage came out at 2.04.
To U109C A121U A141G belongs 1.5.
